# Data as given in the supplement of paper PMC8728848.
# Some of the results follow.
# Legend:
# Assay in all cases: glycan array binding signal (z-score within array); higher = stronger binding
# Conditions in all cases: glycan notation: IUPAC condensed, linker removed; mutation: Y228W
# [1] = target: Fuc(a1-2)[GalNAc(b1-3)]Gal
# In short: (§1)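 The binding signal is a Z-score computed within each array and averaged over linkers. Arrays of the same protein sequence at different concentrations or buffers were also averaged together. Data originate from 3228 arrays in the Consortium for Functional Glycomics database, kept only where the protein sequence was available.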
# [2] = target: Fuc(a1-3)GlcNAc
# In short: as §1
# [3] = target: Fuc(a1-3)[Gal(b1-4)]Glc6S
# In short: as §1
# [4] = target: Fuc(a1-3)[Gal(b1-4)]GlcNAc
# In short: as §1
# [5] = target: Fuc(a1-3)[Gal(b1-4)]GlcNAc(b1-2)Man
# In short: as §1
# [6] = target: Fuc(a1-3)[Gal(b1-4)]GlcNAc(b1-2)Man(a1-3)[Fuc(a1-3)[Gal(b1-4)]GlcNAc(b1-2)Man(a1-6)]Man(b1-4)GlcNAc(b1-4)GlcNAc
# In short: as §1
# [7] = target: Fuc(a1-3)[Gal(b1-4)]GlcNAc(b1-2)Man(a1-3)[Fuc(a1-3)[Gal(b1-4)]GlcNAc(b1-2)Man(a1-6)]Man(b1-4)GlcNAc(b1-4)[Fuc(a1-6)]GlcNAc
# In short: as §1
# [8] = target: Fuc(a1-3)[Gal(b1-4)]GlcNAc(b1-3)Gal(b1-3)[Fuc(a1-4)]GlcNAc
# In short: as §1
# [9] = target: Fuc(a1-3)[Gal(b1-4)]GlcNAc(b1-3)Gal(b1-4)[Fuc(a1-3)]GlcNAc
# In short: as §1
# [10] = target: Fuc(a1-3)[Gal(b1-4)]GlcNAc(b1-3)Gal(b1-4)[Fuc(a1-3)]GlcNAc(b1-3)Gal(b1-4)[Fuc(a1-3)]GlcNAc
# In short: as §1
# [11] = target: Fuc(a1-3)[Gal(b1-4)]GlcNAc(b1-3)GalNAc
# In short: as §1
# [12] = target: Fuc(a1-3)[Gal(b1-4)]GlcNAc(b1-6)GalNAc
# In short: as §1
# [13] = target: Fuc(a1-3)[Gal(b1-4)]GlcNAc(b1-6)[Gal(b1-3)GlcNAc(b1-3)]Gal(b1-4)Glc
# In short: as §1
# [14] = target: Fuc(a1-3)[Gal(b1-4)]GlcNAc6S
# In short: as §1
# [15] = target: Fuc(a1-3)[Gal3S(b1-4)]Glc
# In short: as §1
# [16] = target: Fuc(a1-3)[Gal3S(b1-4)]GlcNAc
# In short: as §1
# [17] = target: Fuc(a1-3)[Gal3S(b1-4)]GlcNAc6S
# In short: as §1
# [18] = target: Fuc(a1-3)[GalNAc(b1-4)]GlcNAc
# In short: as §1
# [19] = target: Fuc(a1-3)[GalNAc(b1-4)]GlcNAc6S
# In short: as §1
# [20] = target: Fuc(a1-4)GlcNAc
# In short: as §1
# [21] = target: Fuc(b1-3)GlcNAc
# In short: as §1
# [22] = target: Gal(a1-2)Gal
# In short: as §1
# [23] = target: Gal(a1-3)Gal
# In short: as §1
# [24] = target: Gal(a1-3)Gal(b1-3)GlcNAc
# In short: as §1
# [25] = target: Gal(a1-3)Gal(b1-3)GlcNAc(b1-2)Man
# In short: as §1
# [26] = target: Gal(a1-3)Gal(b1-3)GlcNAc(b1-2)Man(a1-3)[Gal(a1-3)Gal(b1-3)GlcNAc(b1-2)Man(a1-6)]Man(b1-4)GlcNAc(b1-4)GlcNAc
# In short: as §1
# [27] = target: Gal(a1-3)Gal(b1-3)GlcNAc(b1-3)GalNAc
# In short: as §1
# [28] = target: Gal(a1-3)Gal(b1-3)GlcNAc(b1-6)GalNAc
# In short: as §1
# [29] = target: Gal(a1-3)Gal(b1-3)[Fuc(a1-4)]GlcNAc(b1-2)Man(a1-3)[Gal(a1-3)Gal(b1-3)[Fuc(a1-4)]GlcNAc(b1-2)Man(a1-6)]Man(b1-4)GlcNAc(b1-4)GlcNAc
# In short: as §1
# [30] = target: Gal(a1-3)Gal(b1-4)Glc
# In short: as §1
binder,measurement,setting,value
"Epa1-NP-mutant-Y228W (Candida glabrata), Q6VBJ0 (protein) MILNPALFLNKCVCIYTTLILLLLTNGGYATSSNDISLASKDPTTFPLGCSPDITTPKKGLSMELYSYDFRKKGSYPCWDAAYLDPNYPRTGYKSHRLLAKVDGVTGNINFYYHATKGCTPQLGHLPASYNYPKPLTMTNFTMLLYGYFRPKVTGFHTFTISADDLLFVNFGAGNAFDCCRRDSSADHFGNYQAYAIWGSKTAKDELTVHLDAGVYYPIRLFYNNREWDGALSFTFKTESNENTVSDFSEYFFSLDDTEEGCPGLISYDSSCASVKTSKIIGIDYHTETPNENLVPITKTIYHLGIPCTGTTTTPLCGSGFYDPLANKCVTINTSSTSSVTKTTSHTTSKEVSFHSSISSQKTLIPKSIPSPYGPIKSQSIPTEMETSSEISSSEYAFSDVISTPSHSPYTKKHSSLNSSSYTSTVIHSLTSYSISQGIFSTSLSEQNITSKSSTDKFSTATSMSNNITQSSIIISQFSTNNENYTTTSMHTSSDKISTETLNNSISTTTSILFSNSSTILKNNTTIISSDKDTHYHPVNPTIVCSTNKTEIICASITQPSISNSNNHWSSSVLKFNSTTVRSTLPSSAGSNETSINVPFSSSTESNTSTSSTSTSNSKMVRSTLPSSAGSNETSISVPFSSSTESNTSTSSTSTSNSKMVRSTLPSSAGSNETSINVPFSSSTESNTSTSSTSTSNSKTVRSTPFSSAGIIMTSLSQRNNKSASSYASSNSKCYNTADSCRKVHSTPSYLLTSSYTSEGVDYDCSLVSTKLKINDTNCVNNKHTTKSCLKTSVTTTIPTLEIKTARKSSSNTIGLHSYPTSSPNKSISSAPIIGYISSFKTIKTASPSYQTSDLTTITTITSLNNPGSTAVENTHESNDKSRKTSSNDISSKHSVIKETKDAVESSNKSHQTNTLKCSSIIIASSSHNSYESLGGTTLTLTLSKVYSPQNNDTLPFLEISEVNPSRTVLPESSKMMQYLTSTEERNKTARNTIATNIVSISTFHFEGEGNAIRMGYTQLLLMLIGIIVMNIGT",glycan array binding signal (z-score),[1],-0.367
same,glycan array binding signal (z-score),[2],-0.44
same,glycan array binding signal (z-score),[3],-0.135
same,glycan array binding signal (z-score),[4],-0.206
same,glycan array binding signal (z-score),[5],-0.21
same,glycan array binding signal (z-score),[6],-0.215
same,glycan array binding signal (z-score),[7],0.029
same,glycan array binding signal (z-score),[8],-0.286
same,glycan array binding signal (z-score),[9],-0.117
same,glycan array binding signal (z-score),[10],-0.169
same,glycan array binding signal (z-score),[11],0.01
same,glycan array binding signal (z-score),[12],-0.026
same,glycan array binding signal (z-score),[13],-0.326
same,glycan array binding signal (z-score),[14],0.024
same,glycan array binding signal (z-score),[15],-0.123
same,glycan array binding signal (z-score),[16],-0.117
same,glycan array binding signal (z-score),[17],0.109
same,glycan array binding signal (z-score),[18],-0.215
same,glycan array binding signal (z-score),[19],-0.418
same,glycan array binding signal (z-score),[20],-0.165
same,glycan array binding signal (z-score),[21],-0.358
same,glycan array binding signal (z-score),[22],-0.306
same,glycan array binding signal (z-score),[23],0.025
same,glycan array binding signal (z-score),[24],0.033
same,glycan array binding signal (z-score),[25],-0.098
same,glycan array binding signal (z-score),[26],-0.069
same,glycan array binding signal (z-score),[27],-0.282
same,glycan array binding signal (z-score),[28],-0.177
same,glycan array binding signal (z-score),[29],0.045
same,glycan array binding signal (z-score),[30],-0.006
